Measured values: PMC12040169 (PLOS Biology, 2025)
The list shows a part of the results.

System: T1, C. trachomatis L2/434/Bu expressing GFP (CTL2-GFP)
T1 construct: L2/434/Bu GFP intracellular growth in HeLa cells
Parameters: species or system HeLa; C. trachomatis total inclusion area by high-content imaging, normalised to DMSO
Conditions: total inclusion area; 28.5 h, 10 µM; inhibitor
How it was run: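 High-content images of fixed, Hoechst-stained infected cultures supply inclusion area and count (growth) plus nuclei number (viability), complementing bulk GFP/resorufin fluorescence. MIC determination is unchanged from the primary assay.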

Compound | % of control remaining
O=c1[nH]c2ccc(S(=O)(=O)Nc3ccc(-c4ccccc4)cc3)cc2[nH]1 [CBK266999] | 91.8043
O=C(Nc1cccc2ccccc12)N1CCN(Cc2ccc3c(c2)OCO3)CC1 [CBK074747] | 66.611
CSCC(=O)N[C@H]1CCN2C(=O)N(c3cccc(C(C)=O)c3)C(=O)[C@@H]2C1 [CBK289546] | 91.272
O=C(CSCc1ccc(Br)cc1)Nc1cccnc1 [CBK268543] | 93.7072
CN(C)CC1CCCCN1C(=O)C1CC2C=CC1C21CC1 (stereo not shown) [CBK282085] | 109.721
COc1ccccc1-c1cnn2c(NCC3CCCO3)cc(C)nc12 (stereo not shown) [CBK304529] | 114.756
Cc1cc(C)n(CC(O)CN(Cc2ccccc2)Cc2ccco2)n1 (stereo not shown) [CBK282957] | 95.0579
CC(C)(C)c1cc(CCC(c2cc(C(C)(C)C)c(O)c(C(C)(C)C)c2)c2cc(C(C)(C)C)c(O)c(C(C)(C)C)c2)cc(C(C)(C)C)c1O [CBK261271] | 86.6999
CC(=O)c1ccc(S(=O)(=O)Nc2ccc(C)cc2)cc1 [CBK045380] | 97.155
O=C(c1cccnc1)C1CCN(C(=O)c2cccs2)CC1 [CBK283528] | 62.8614
Cc1noc2nc(-c3ccco3)cc(C(=O)N(C)CCOc3ccccc3)c12 [CBK295623] | 75.602
CC(=O)Nc1cccc(-c2cnc(N)c(NC3CCOCC3)n2)c1 [CBK063845] | 88.3089
O=C(O)CCC(=O)Nc1cccc2ccccc12 [CBK260889] | 94.2141
CC(C)(C)OC(=O)N1CCCC(C(=O)NCc2ccco2)C1 (stereo not shown) [CBK305102] | 36.513
O=C(CSc1nnc2sc3ccccc3n12)N1c2ccccc2Sc2ccccc21 [CBK265457] | 61.3792
O=C(O)c1ccc(NS(=O)(=O)c2cc(Br)c(Cl)s2)cc1 [CBK034049] | 85.6884
Cn1c(SCc2ccc([N+](=O)[O-])cc2)nnc1C(O)c1ccccc1 (stereo not shown) [CBK269735] | 80.6966
COc1cccc([C@H]2CN(C(=O)c3ccccc3)[C@@H]3CCN(Cc4ccccc4C)C[C@H]23)c1 [CBK285610] | 90.6344
CC(C)c1ccc(NS(=O)(=O)c2cc3c(N4CCNCC4)nccc3s2)cc1 [CBK038104C] | 68.8491
CCOC(=O)c1cn(CC)c2cc(N3CCCC3)c(F)cc2c1=O [CBK307169] | 114.589
Cn1cc(CN2CCC(C(=O)NC(c3ccc4c(c3)OCO4)c3ccccn3)CC2)c2ccccc21 (stereo not shown) [CBK148183] | 107.699
O=C1NC2(CCN(C(=O)CC3c4ccccc4Oc4ccccc43)CC2)Nc2ccccc21 [CBK286307] | 92.7183
COc1cc2c(cc1CNC1CCCc3c1cnn3C)OC(C)C2 (stereo not shown) [CBK304296C] | 53.0142
Cc1nn(-c2ccc(F)cc2)c2c1C(c1ccc(C(=O)O)cc1)CC(=O)N2 (stereo not shown) [CBK286561] | 82.6317
O=C(O)C[C@@H]1CCN(C(=O)NCc2ccccc2)C[C@@H]1CC1=NCCc2ccccc21 [CBK289161] | 110.929
Cc1cc(NS(=O)(=O)c2cc(C(=O)O)c(Cl)cc2F)n(C)n1 [CBK067260] | 102.138
CCCn1ncc(CN[C@@H]2CCC[C@H]2Cc2cc(C)no2)c1C [CBK282948] | 95.3563

Compound | % of control remaining
COc1ccc2c(c1)cc(C(=O)N(C)CCCn1nc(C)cc1C)n2C [CBK307196] | 90.552
O=C(NCCOCc1ccc(Cl)cc1)c1cc(-n2cnnc2)ccc1Cl [CBK267939] | 102.886
N#Cc1ccccc1NC(=O)CSc1nc2cc(Cl)ccc2[nH]1 [CBK270019] | 70.5123
O=C(CSc1ncccc1C(=O)O)Nc1nnc(Cc2ccccc2)s1 [CBK299835] | 79.1802
Cc1cccc(C(=O)Nc2ccc(-c3nnc(-c4ccc(NC(=O)c5cccc(C)c5)cc4)o3)cc2)c1 [CBK261603] | 94.4445
COCCNc1nc(-c2cc(C(C)C)ccc2OC)ccc1C(=O)Nc1cccc(OC)c1 [CBK105904] | 86.3056
O=C(Cn1ncc2cccn2c1=O)OC1CCCCC1 [CBK283667] | 90.6224
COc1ccc(-c2noc(CNC(=O)Nc3ccccc3)n2)cc1OC [CBK269900] | 126.771
O=C(O)c1ccc(N2C(=O)C(=Cc3c4ccccc4cc4ccccc34)SC2=S)cc1 [CBK296101] | 78.0411
CCn1cc(CN(CCCN(C)C)Cc2ccc(C)o2)c(C)n1 [CBK283201] | 93.1196
CN(CC(=O)NCc1ccc(Cl)cc1)S(=O)(=O)Cc1ccc(C#N)cc1 [CBK305899] | 78.6045
O=S(=O)(c1cccs1)N1CCC2(CC1)OCCO2 [CBK057295] | 87.4203
Cn1nccc1C(=O)NC(Cc1ccsc1)c1nccs1 (stereo not shown) [CBK285138] | 77.7407
COc1ccc(C2CC(=O)C3=C(C2)NC(C)=C(C#N)C3c2cccc(F)c2)cc1 (stereo not shown) [CBK293922] | 117.367
CC(Cn1cccn1)C(=O)Nc1cccc(N2CCCC2)c1 (stereo not shown) [CBK283249] | 116.263
O=C(COc1nc2cc3c(nc2o1)CCC3)c1ccccc1 [CBK269407] | 89.1206
CN(C)Cc1c(O)ccc2occ(C(=O)c3cccs3)c12 [CBK261959C] | 98.2899
Cc1ccc(S(=O)(=O)c2cccc(S(=O)(=O)N3CCOCC3)c2)cc1S(=O)(=O)N1CCOCC1 [CBK262117] | 83.1032
CCOc1cc(OCC)cc(C(=O)N2CCC3(CC2)NC(=O)c2cc(I)ccc2O3)c1 [CBK166301] | 43.1761
Cc1ncsc1CCOc1nccnc1NC(C)C [CBK115728] | 102.44
O=C(O)c1ccc(/C=C/C(=O)c2ccc3c(c2)OCCO3)cc1 [CBK262173] | 85.7377
CN(CCN1CCCCC1)C(=O)C1(c2ccc(F)cc2)CC1 [CBK282178] | 77.134
CC(C)(C)OC(=O)N1CCN(C(=O)c2cc(-c3cccnc3)on2)CC1 [CBK305648] | 83.0151
O=C(CN1CCCC1)N1CCCC1c1nc2ccccc2[nH]1 (stereo not shown) [CBK284003] | 95.7713
Clc1ccc(OCCOc2cncc(N3CCCC3)n2)cc1 [CBK115668] | 98.4768
CCN1CCN(c2ccc(NC(=S)NC(=O)c3ccccc3Br)cc2)CC1 [CBK268583] | 60.6182
CC(=O)Nc1ccc(F)c(NC(=O)NCCN2CCCOC2=O)c1 [CBK307166] | 77.5707

Compound | % of control remaining
O=C(Nc1ccc(N2CCN(C(=O)c3ccco3)CC2)cc1)c1cccnc1 [CBK270034] | 84.7772
CN(Cc1nnc(-c2ccc(C(C)(C)C)cc2)o1)C(=O)C1CCCO1 (stereo not shown) [CBK307597] | 85.9201
CCOc1cc(NC(=O)N2CCC(Cc3cnn(C)c3)C2)ccc1C (stereo not shown) [CBK305295] | 14.6286
Cc1nc2ccc(C(=O)NCCCc3ccccn3)cc2s1 [CBK282478] | 111.502
Nc1nc(N)c(Cc2ccc(Cl)cc2Cl)c(N)n1 [CBK009425] | 71.361
COc1cccc(/C=C\c2[nH]c(=O)[nH]c(=O)c2[N+](=O)[O-])c1OCC(=O)O [CBK266822] | 146.136
CCNc1ccn([C@H]2C[C@@H](O)[C@@H](CO)O2)c(=O)n1 [CBK201311] | 86.141
O=c1cc(O)c2ccccc2n1Cc1ccccc1F [CBK291162] | 117.532
Cc1cnc2[nH]c(C(F)(F)F)c(CN3CCOCC3)c2c1 [CBK284766] | 121.734
CCCN1CCC(CNC(=O)c2cc3c(OC)cccc3n2C)CC1 [CBK283255] | 105.228
CC(C)(O)c1cn(C2CN(C(=O)c3sccc3-c3ccccc3)C2)nn1 [CBK305442] | 45.8642
O=C(NCc1ccc(Cl)cc1)c1cnc2ccc(C#CCO)cc2c1O [CBK017979] | 88.0144
O=S(=O)(/N=C/N1CCCC1)c1ccccc1 [CBK023272] | 44.6526
O=C(Nc1ccc2c(c1)OCO2)c1cccc(I)c1 [CBK058308] | 62.2581
O=C(NCc1ccccc1)C(=O)NNC(=O)C12CC3CC(CC(C3)C1)C2 [CBK262951] | 106.86
CC1CN(CC(=O)NC(C)(C)c2ccccc2)CC(C)N1 (stereo not shown) [CBK051693] | 98.0035
CN(C(=O)CN1CCOC(Cn2cccn2)C1)C1(C#N)CCCCC1 (stereo not shown) [CBK305335] | 45.3333
CCc1c(C)nc(N)nc1N1N=C1SC(C(C)=O)C(C)=O [CBK268558] | 68.0938
COc1ccc(C=CC(=O)N(C)c2ccccc2C(=O)O)cc1 [CBK296135] | 114.542
O=C(N/N=C/c1cccnc1)C1CCCN(S(=O)(=O)c2ccccc2)C1 (stereo not shown) [CBK262712] | 103.034
COc1ccc(OC)c(NS(=O)(=O)N(C)C)c1 [CBK005362] | 19.4074
CC(=O)NCCn1cc2c(n1)[C@H]1CN(C(=O)C3CCC3)C[C@H]1CC2 [CBK284584] | 74.2892
COc1cc(/C=N/NC(=O)CCNc2n[nH]c(=O)[nH]c2=O)cc(Br)c1O [CBK263494] | 108.629
CO[C@]1(c2ccc(Cl)cc2)CC[C@H](NCCCC(=O)c2ccc(F)cc2)CC1 [CBK015959C] | 22.6182
CCCCc1cc(=O)oc2cc(OC(C)C(=O)O)c(Cl)cc12 (stereo not shown) [CBK265166] | 92.7619
